Source: the supplement of paper PMC9151546
Single values are uncertain, as repeats are few or missing.

Experiments:
[1] = test system: CHO-K1; assay: micronucleus frequency (% of nucleated events); higher = more micronuclei (genotoxic)
[2] = test system: CHO-K1; assay: hypodiploid nuclei frequency (% of nucleated events); higher = more hypodiploid events (aneugenic)
Description: (§1)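 Flow-cytometric in vitro micronucleus assay (Litron MicroFlow) in CHO-K1 cells in 96-well plates, 19 concentrations (4.5-200 µM, n=1 per concentration). Without S9, cells were exposed for 24 h and sampled at 48 h. With Aroclor 1254-induced rat liver S9, cells were exposed for 3-4 h and sampled at 27-28 h. Read-outs are %MN and %hypodiploid nuclei relative to nucleated events, and relative survival as the nuclei-to-bead ratio versus the 1% DMSO vehicle control (x100).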

[3] = test system: CHO-K1; assay: relative survival (nuclei to bead ratio vs DMSO control) (% of vehicle control); higher = more surviving cells
Description: as §1
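For hypodiploid nuclei frequency (% of nucleated events) in this document: hypodiploid nuclei gated on a flow cytometer with 488 nm excitation after SYTOX Green staining, cultures at 37 °C, positive controls vinblastine without S9 and cyclophosphamide with S9.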
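For micronucleus frequency (% of nucleated events) in this document: cells lysed with nuclei stained by SYTOX Green, then micronucleus-gated events counted against nucleated events by flow cytometry with 488 nm excitation.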
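For relative survival (nuclei to bead ratio vs DMSO control) in this document: Lysed-cell nuclei stained with SYTOX Green and counted against counting beads by flow cytometry at 488 nm excitation, with vinblastine (no S9) and cyclophosphamide (plus S9) as positive controls.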

CCCCCCCCCC(=O)O [Decanoic acid]
Settings | hypodiploid nuclei frequency, [2] [%] | micronucleus frequency, [1] [%] | relative survival, [3]
concentration: 4.5 (µM), S9 metabolic activation: with S9, exposure time: 3-4 hours | 0.2 | 1.16 | 106
concentration: 4.5 (µM), S9 metabolic activation: without S9, exposure time: 24 hours | 0.56 | 1.18 | 83.3
concentration: 5.63 (µM), S9 metabolic activation: with S9, exposure time: 3-4 hours | 0.3 | 1.24 | 118
concentration: 5.63 (µM), S9 metabolic activation: without S9, exposure time: 24 hours | 0.78 | 1.22 | 96
concentration: 7.04 (µM), S9 metabolic activation: with S9, exposure time: 3-4 hours | 0.22 | 1.3 | 105
concentration: 7.04 (µM), S9 metabolic activation: without S9, exposure time: 24 hours | 0.68 | 1.34 | 104
concentration: 8.8 (µM), S9 metabolic activation: with S9, exposure time: 3-4 hours | 0.18 | 1.1 | 111
concentration: 8.8 (µM), S9 metabolic activation: without S9, exposure time: 24 hours | 0.48 | 1.28 | 123
concentration: 11 (µM), S9 metabolic activation: with S9, exposure time: 3-4 hours | 0.1 | 1.14 | 113
concentration: 11 (µM), S9 metabolic activation: without S9, exposure time: 24 hours | 0.54 | 1.7 | 120
concentration: 13.7 (µM), S9 metabolic activation: with S9, exposure time: 3-4 hours | 0.28 | 1.5 | 96.5
concentration: 13.7 (µM), S9 metabolic activation: without S9, exposure time: 24 hours | 0.58 | 1.4 | 108
concentration: 17.2 (µM), S9 metabolic activation: with S9, exposure time: 3-4 hours | 0.16 | 1.58 | 91.5
concentration: 17.2 (µM), S9 metabolic activation: without S9, exposure time: 24 hours | 0.54 | 1.66 | 104
concentration: 21.5 (µM), S9 metabolic activation: with S9, exposure time: 3-4 hours | 0.18 | 1.3 | 91.7
concentration: 21.5 (µM), S9 metabolic activation: without S9, exposure time: 24 hours | 0.48 | 1.56 | 114
concentration: 26.8 (µM), S9 metabolic activation: with S9, exposure time: 3-4 hours | 0.18 | 1.1 | 136
concentration: 26.8 (µM), S9 metabolic activation: without S9, exposure time: 24 hours | 0.8 | 1.66 | 123
concentration: 33.6 (µM), S9 metabolic activation: with S9, exposure time: 3-4 hours | 0.34 | 1.36 | 127
concentration: 33.6 (µM), S9 metabolic activation: without S9, exposure time: 24 hours | 0.68 | 1.5 | 113
concentration: 41.9 (µM), S9 metabolic activation: with S9, exposure time: 3-4 hours | 0.24 | 1.1 | 122
concentration: 41.9 (µM), S9 metabolic activation: without S9, exposure time: 24 hours | 0.5 | 1.74 | 109
concentration: 52.4 (µM), S9 metabolic activation: with S9, exposure time: 3-4 hours | 0.1 | 1.48 | 117
concentration: 52.4 (µM), S9 metabolic activation: without S9, exposure time: 24 hours | 0.66 | 1.3 | 129
concentration: 65.5 (µM), S9 metabolic activation: with S9, exposure time: 3-4 hours | 0.08 | 1.2 | 107
concentration: 65.5 (µM), S9 metabolic activation: without S9, exposure time: 24 hours | 0.72 | 1.38 | 131
concentration: 81.9 (µM), S9 metabolic activation: with S9, exposure time: 3-4 hours | 0.08 | 1.18 | 124
concentration: 81.9 (µM), S9 metabolic activation: without S9, exposure time: 24 hours | 0.74 | 1.7 | 127
concentration: 102 (µM), S9 metabolic activation: with S9, exposure time: 3-4 hours | 0.14 | 1.18 | 104
concentration: 102 (µM), S9 metabolic activation: without S9, exposure time: 24 hours | 0.84 | 1.42 | 106
concentration: 128 (µM), S9 metabolic activation: with S9, exposure time: 3-4 hours | 0.28 | 1.2 | 123
concentration: 128 (µM), S9 metabolic activation: without S9, exposure time: 24 hours | 0.74 | 1.44 | 110
concentration: 160 (µM), S9 metabolic activation: with S9, exposure time: 3-4 hours | 0.16 | 1.82 | 92.8
concentration: 160 (µM), S9 metabolic activation: without S9, exposure time: 24 hours | 1.08 | 1.48 | 95
concentration: 200 (µM), S9 metabolic activation: with S9, exposure time: 3-4 hours | 0.06 | 1.52 | 96.9
concentration: 200 (µM), S9 metabolic activation: without S9, exposure time: 24 hours | 1.24 | 1.6 | 100

O=S1(=O)CCCO1 [1,3-Propane sultone]
Settings | hypodiploid nuclei frequency, [2] [%] | micronucleus frequency, [1] [%] | relative survival, [3]
concentration: 4.48 (µM), S9 metabolic activation: with S9, exposure time: 3-4 hours | 0.48 | 1.92 | 62.1
concentration: 4.48 (µM), S9 metabolic activation: without S9, exposure time: 24 hours | 1.24 | 1.98 | 74.9
concentration: 5.6 (µM), S9 metabolic activation: with S9, exposure time: 3-4 hours | 0.32 | 1.5 | 55.4
concentration: 5.6 (µM), S9 metabolic activation: without S9, exposure time: 24 hours | 0.94 | 1.76 | 69.2
concentration: 7 (µM), S9 metabolic activation: with S9, exposure time: 3-4 hours | 0.36 | 2.32 | 54.2
concentration: 7 (µM), S9 metabolic activation: without S9, exposure time: 24 hours | 0.74 | 1.78 | 81.8
concentration: 8.75 (µM), S9 metabolic activation: with S9, exposure time: 3-4 hours | 0.42 | 1.98 | 62.7
concentration: 8.75 (µM), S9 metabolic activation: without S9, exposure time: 24 hours | 0.98 | 1.54 | 80.2
concentration: 10.9 (µM), S9 metabolic activation: with S9, exposure time: 3-4 hours | 0.4 | 1.48 | 68.3
concentration: 10.9 (µM), S9 metabolic activation: without S9, exposure time: 24 hours | 0.88 | 1.74 | 77.7
concentration: 13.7 (µM), S9 metabolic activation: with S9, exposure time: 3-4 hours | 0.62 | 2.08 | 64.9
concentration: 13.7 (µM), S9 metabolic activation: without S9, exposure time: 24 hours | 1.04 | 2.06 | 112
concentration: 17.1 (µM), S9 metabolic activation: with S9, exposure time: 3-4 hours | 0.44 | 1.82 | 68.9
concentration: 17.1 (µM), S9 metabolic activation: without S9, exposure time: 24 hours | 1.26 | 1.84 | 102
concentration: 21.4 (µM), S9 metabolic activation: with S9, exposure time: 3-4 hours | 0.5 | 1.78 | 64.4
concentration: 21.4 (µM), S9 metabolic activation: without S9, exposure time: 24 hours | 1.08 | 1.8 | 97.5
concentration: 26.7 (µM), S9 metabolic activation: with S9, exposure time: 3-4 hours | 0.26 | 2.6 | 73.8
concentration: 26.7 (µM), S9 metabolic activation: without S9, exposure time: 24 hours | 1.64 | 1.56 | 83.8
concentration: 33.4 (µM), S9 metabolic activation: with S9, exposure time: 3-4 hours | 0.54 | 2.04 | 84.7
concentration: 33.4 (µM), S9 metabolic activation: without S9, exposure time: 24 hours | 1.26 | 2.48 | 96.1
concentration: 41.7 (µM), S9 metabolic activation: with S9, exposure time: 3-4 hours | 0.46 | 1.9 | 80.8
concentration: 41.7 (µM), S9 metabolic activation: without S9, exposure time: 24 hours | 1.46 | 2.16 | 95.2
concentration: 52.2 (µM), S9 metabolic activation: with S9, exposure time: 3-4 hours | 0.53 | 2.37 | 69.2
concentration: 52.2 (µM), S9 metabolic activation: without S9, exposure time: 24 hours | 1.08 | 1.72 | 87.8
concentration: 65.2 (µM), S9 metabolic activation: with S9, exposure time: 3-4 hours | 0.66 | 2.04 | 65.5
concentration: 65.2 (µM), S9 metabolic activation: without S9, exposure time: 24 hours | 1.5 | 2.44 | 90.2
concentration: 81.5 (µM), S9 metabolic activation: with S9, exposure time: 3-4 hours | 0.46 | 1.6 | 75.7
concentration: 81.5 (µM), S9 metabolic activation: without S9, exposure time: 24 hours | 1.48 | 2 | 97.1
concentration: 102 (µM), S9 metabolic activation: with S9, exposure time: 3-4 hours | 0.44 | 1.7 | 84.5
concentration: 102 (µM), S9 metabolic activation: without S9, exposure time: 24 hours | 1.54 | 1.96 | 105
concentration: 127 (µM), S9 metabolic activation: with S9, exposure time: 3-4 hours | 0.54 | 1.64 | 71.1
concentration: 127 (µM), S9 metabolic activation: without S9, exposure time: 24 hours | 1.44 | 2 | 100
concentration: 159 (µM), S9 metabolic activation: with S9, exposure time: 3-4 hours | 0.34 | 1.68 | 81.9
concentration: 159 (µM), S9 metabolic activation: without S9, exposure time: 24 hours | 2.28 | 2.98 | 123
concentration: 199 (µM), S9 metabolic activation: with S9, exposure time: 3-4 hours | 0.56 | 1.84 | 78.4
concentration: 199 (µM), S9 metabolic activation: without S9, exposure time: 24 hours | 2.42 | 3.12 | 98.5
